# The campaign covered roughly 310,000 compounds. About 14,000 (4.5%) showed an effect of 50% or more. The effect is printed as a negative number. The list shows a part of the results.
# Biological target: human ether-à-go-go-related gene (hERG) potassium channel (human, UniProt Q12809)
# Test: primary screen, population patch clamp on CHO cells stably expressing hERG
# 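Also: peak tail current of the secondary pulse compared with the same well before compound.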
# Chain of human ether-à-go-go-related gene (hERG) potassium channel (Q12809 whole entry, looked up): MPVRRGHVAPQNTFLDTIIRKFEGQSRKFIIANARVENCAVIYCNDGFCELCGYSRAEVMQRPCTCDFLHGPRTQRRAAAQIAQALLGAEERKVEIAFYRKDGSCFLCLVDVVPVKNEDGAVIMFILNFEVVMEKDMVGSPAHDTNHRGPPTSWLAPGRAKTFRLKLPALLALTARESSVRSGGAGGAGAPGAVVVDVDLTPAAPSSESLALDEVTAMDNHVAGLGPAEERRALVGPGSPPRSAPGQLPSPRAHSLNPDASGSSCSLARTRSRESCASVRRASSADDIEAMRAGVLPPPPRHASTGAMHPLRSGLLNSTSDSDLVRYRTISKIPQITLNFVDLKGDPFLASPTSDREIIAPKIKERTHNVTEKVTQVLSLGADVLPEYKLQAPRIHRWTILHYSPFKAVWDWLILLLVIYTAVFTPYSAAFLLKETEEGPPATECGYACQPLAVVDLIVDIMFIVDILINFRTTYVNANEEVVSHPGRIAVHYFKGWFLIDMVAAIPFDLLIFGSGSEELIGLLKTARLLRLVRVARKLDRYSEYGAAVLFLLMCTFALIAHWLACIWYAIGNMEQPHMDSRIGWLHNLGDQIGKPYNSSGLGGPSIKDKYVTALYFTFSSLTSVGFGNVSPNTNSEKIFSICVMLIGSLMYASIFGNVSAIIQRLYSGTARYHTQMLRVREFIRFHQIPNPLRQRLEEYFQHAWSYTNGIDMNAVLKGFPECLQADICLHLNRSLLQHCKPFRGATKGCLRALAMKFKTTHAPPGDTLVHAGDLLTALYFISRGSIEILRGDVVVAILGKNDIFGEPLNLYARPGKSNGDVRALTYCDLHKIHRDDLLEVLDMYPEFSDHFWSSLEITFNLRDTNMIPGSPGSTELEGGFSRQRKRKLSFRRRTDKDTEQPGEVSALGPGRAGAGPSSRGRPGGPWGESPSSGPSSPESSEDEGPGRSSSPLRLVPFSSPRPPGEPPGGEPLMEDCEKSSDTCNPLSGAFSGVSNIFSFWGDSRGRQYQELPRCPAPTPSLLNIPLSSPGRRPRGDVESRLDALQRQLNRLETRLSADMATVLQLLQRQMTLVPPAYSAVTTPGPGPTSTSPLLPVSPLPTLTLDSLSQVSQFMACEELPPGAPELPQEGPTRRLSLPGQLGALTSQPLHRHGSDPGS
row,Structure (SMILES),"hERG current change (%, negative = inhibition) at 10uM [%]"
1,C#CCOc1ccccc1/C=C1/C(=O)ON=C1C,16.4
2,Cc1onc(-c2ccccc2Cl)c1C(=O)O/N=C(\N)c1ccccc1,16
3,CCNC(=O)CCn1nc(-c2ccc(C)cc2)c2ccccc2c1=O,-10.6
4,CCOc1ccc(C(=O)N2CCC3(CC2)NCCc2[nH]cnc23)cc1OCC,22.6
5,Cc1cc(C)cc(C(=O)NC2C(=O)N3C(C(=O)O)=C(CSc4nnc(C)s4)CSC23)c1 (centres unmarked),50.8
6,Cc1ccc(S(=O)(=O)N2CCN(CCO)CC2)cc1-c1nnc2c3ccccc3c(C)nn12,-13.9
7,COc1ccc(S(=O)(=O)N2CCN(c3ccccn3)CC2)cc1OC,-12
8,Cc1cc(OCC(=O)Nc2ccc3oc(=O)ccc3c2)ccc1Cl,13.4
9,COc1ccc(CNC(=O)C2CCN(C(=O)c3ccc(F)cc3)CC2)cc1OC,0.861
10,COc1ccc(Cc2nnc(NC(=O)c3ccc(Cl)c([N+](=O)[O-])c3)s2)cc1,15
11,COc1c(OC)c(O)c2c(=O)c(O)c(-c3ccccc3)oc2c1OC,9.46
12,Cc1nnc(-c2ccc(Oc3ccc(Cl)cc3)c([N+](=O)[O-])c2)o1,4.67
13,CCN(CC)S(=O)(=O)c1ccc(NC(=O)CN(c2ccc(OC)cc2OC)S(C)(=O)=O)cc1,-13
14,COc1ccc(C(=O)NCCN2C(=O)S/C(=C\c3cccnc3)C2=O)c(OC)c1OC,-9.86
15,CCN(CC)CCn1c(=S)[nH]c2cc(C(=O)N3CC(C)CC(C)C3)ccc2c1=O (centres unmarked),-14.7
16,CCCCSc1nc(C)cc(C)c1S(=O)(=O)c1ccccc1C,13.5
17,CC(C)C[C@H](NC(=O)c1nc[nH]c1C(=O)N1CCC(C)CC1)C(=O)OC(C)(C)C,-0.866
18,O=C(N/N=C/c1ccccc1[N+](=O)[O-])c1cccs1,5.65
19,CC1=NN(c2ccccc2)C(=O)/C1=C/c1cc2cc(C)ccc2nc1N1CCCCC1,7.32

row,Structure (SMILES),"hERG current change (%, negative = inhibition) at 10uM [%]"
1,Cc1cc(N(CCCl)CCCl)ccc1/C=N/NC(=O)c1ccco1,-14.1
2,CN(C(=O)COc1ccc(S(=O)(=O)N2CCOCC2)cc1[N+](=O)[O-])C1CCS(=O)(=O)C1 (centres unmarked),17.5
3,Nc1c(-c2ccccc2)cnc2c(-c3ccccc3)cnn12,9.28
4,CCOCc1nnc(NC(=O)c2cccc(OC)c2)s1,11.7
5,CC(C)NC(=O)c1sc2nc(-c3cccs3)cc(-c3cccs3)c2c1N,-9.32
6,O=S(=O)(N/N=C/c1cn(Cc2ccccc2)c2ccccc12)c1ccccc1,4.29
7,CCCCCCCCCC(=O)N1c2ccccc2NC(=O)C1CC(=O)Nc1ccc(C(=O)O)cc1 (centres unmarked),6.95
8,COc1ccc(CC(=O)NCCN2CCOCC2)cc1,18.1
9,CC(=O)n1nc(-c2ccccc2)nc1NCc1ccc(N(C)C)cc1,-0.294
10,CCc1nnc(NC(=O)c2c(-c3ccccc3)noc2C)s1,10.2
11,Cn1c(N)c(C(=O)CSc2nc3ccccc3c(=O)n2Cc2ccccc2)c(=O)n(C)c1=O,6.03
12,CN1CCN(c2ccc([N+](=O)[O-])c(Sc3ccccn3)c2)CC1,-15.7
13,O=C(NCc1ccccc1)/C(=C/c1ccccc1)NC(=O)c1ccco1,-24.6
14,COC(=O)\C(C(C)=O)=C(/C=C/C=C/C=C/N(C)C)N(C)C,-1.84
15,CS(=O)(=O)N1CCN(c2nnc(-c3ccccc3)c3ccccc23)CC1,-21
16,Cc1cccc(NS(=O)(=O)c2ccc(-c3cnc(C4CC4)o3)cc2)c1,6.28
17,CCOC(=O)C(NC(=O)N(C)C)(Nc1sc(C)c(CC)c1C#N)C(F)(F)F (centres unmarked),-3.54
18,COc1ccc(C(=O)Nc2cc(Cl)ccc2OC(=O)c2ccc(OC)cc2)cc1,4.19
19,Fc1ccc(-n2nnnc2-c2ccccc2Cl)cc1,8.64

row,Structure (SMILES),"hERG current change (%, negative = inhibition) at 10uM [%]"
1,O=C(N1CCOCC1)N1CCC(n2nnc3cc(F)ccc32)CC1,-7.65
2,Cc1cccc(C)c1OCC(=O)NCc1nnc(SCC(=O)NC2CCCCC2C)n1C (centres unmarked),-6.2
3,CCCCSc1oc(-c2ccco2)nc1S(=O)(=O)c1ccccc1,14.4
4,CCCN(CCC)C(C)C(=O)NCC1(c2ccccc2)CCCC1.Cl (centres unmarked),-15.3
5,COC(=O)c1ccccc1NC(=O)Cn1c(=O)oc2ccc(Cl)cc21,1.53
6,c1ccc(-c2nnc(-c3ccccc3)o2)cc1,-9.27
7,COc1ccccc1-n1c(C)nnc1SCC(=O)NCc1ccccc1,11.5
8,CCCCOc1ccccc1C(=O)N(Cc1ccco1)C1CCS(=O)(=O)C1 (centres unmarked),6.52
9,CCn1c(=O)c2c(nc3n2CC(C)CN3CCc2ccccc2)n(C)c1=O (centres unmarked),-72.6
10,Cc1ccc(CNC(=O)CS(=O)(=O)Cc2nc(-c3ccccc3F)oc2C)cc1,14.5
11,C=C(c1ccccc1O)n1ccnc1,27.8
12,C(=N\n1cnnc1)/c1ccccn1,-8.04
13,COc1c(Cl)cc(Cl)cc1/C=C/C(=O)c1ccc(NC(=O)c2cccs2)cc1,-1.04
14,COCCN(CCOC)Cc1c(C)[nH]c2c(C)c(C)ccc2c1=O,-9
15,Cc1ccc(O)c(C2=Nc3ccccc3C2(C)C)c1,-5.35
16,CCCCNS(=O)(=O)C1CCS(=O)(=O)C1 (centres unmarked),17
17,Cc1ccc2cccc(Oc3ncnc4scc(-c5ccc(Cl)cc5)c34)c2n1,3.87
18,CCN1CCN(CC(=O)Nc2ccccc2)C(=O)C1=O,10.9

# Source: paper PMC4336329 (PLoS ONE, 2015)
